Biological target: the molecule itself
Assay: cryo-EM structure; in vitro assembly, 50 µM, 100 mM potassium phosphate, 4 mM TCEP, 500 rpm, 3.17 days

B1: tau[…] Δ392–395 (domain or fragment)
chain: not shown
notes: source: E. coli BL21-CodonPlus (DE3)-RIPL, purified (cation exchange, ammonium sulphate precipitation, SEC)
binding result: binds
